The values that follow come from publication PMC4336329 (PLoS ONE, 2015).

The campaign covered roughly 310,000 compounds. About 14,000 (4.5%) showed an effect of 50% or more. Effects have a minus sign here. This is one part of the list.
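Note: peak tail current of the secondary pulse compared with the same well before compound.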

The target of the assay is human ether-à-go-go-related gene (hERG) potassium channel (human, UniProt Q12809). The assay is described as follows: primary screen, population patch clamp on CHO cells stably expressing hERG.
Sequence of human ether-à-go-go-related gene (hERG) potassium channel (Q12809 whole entry, looked up): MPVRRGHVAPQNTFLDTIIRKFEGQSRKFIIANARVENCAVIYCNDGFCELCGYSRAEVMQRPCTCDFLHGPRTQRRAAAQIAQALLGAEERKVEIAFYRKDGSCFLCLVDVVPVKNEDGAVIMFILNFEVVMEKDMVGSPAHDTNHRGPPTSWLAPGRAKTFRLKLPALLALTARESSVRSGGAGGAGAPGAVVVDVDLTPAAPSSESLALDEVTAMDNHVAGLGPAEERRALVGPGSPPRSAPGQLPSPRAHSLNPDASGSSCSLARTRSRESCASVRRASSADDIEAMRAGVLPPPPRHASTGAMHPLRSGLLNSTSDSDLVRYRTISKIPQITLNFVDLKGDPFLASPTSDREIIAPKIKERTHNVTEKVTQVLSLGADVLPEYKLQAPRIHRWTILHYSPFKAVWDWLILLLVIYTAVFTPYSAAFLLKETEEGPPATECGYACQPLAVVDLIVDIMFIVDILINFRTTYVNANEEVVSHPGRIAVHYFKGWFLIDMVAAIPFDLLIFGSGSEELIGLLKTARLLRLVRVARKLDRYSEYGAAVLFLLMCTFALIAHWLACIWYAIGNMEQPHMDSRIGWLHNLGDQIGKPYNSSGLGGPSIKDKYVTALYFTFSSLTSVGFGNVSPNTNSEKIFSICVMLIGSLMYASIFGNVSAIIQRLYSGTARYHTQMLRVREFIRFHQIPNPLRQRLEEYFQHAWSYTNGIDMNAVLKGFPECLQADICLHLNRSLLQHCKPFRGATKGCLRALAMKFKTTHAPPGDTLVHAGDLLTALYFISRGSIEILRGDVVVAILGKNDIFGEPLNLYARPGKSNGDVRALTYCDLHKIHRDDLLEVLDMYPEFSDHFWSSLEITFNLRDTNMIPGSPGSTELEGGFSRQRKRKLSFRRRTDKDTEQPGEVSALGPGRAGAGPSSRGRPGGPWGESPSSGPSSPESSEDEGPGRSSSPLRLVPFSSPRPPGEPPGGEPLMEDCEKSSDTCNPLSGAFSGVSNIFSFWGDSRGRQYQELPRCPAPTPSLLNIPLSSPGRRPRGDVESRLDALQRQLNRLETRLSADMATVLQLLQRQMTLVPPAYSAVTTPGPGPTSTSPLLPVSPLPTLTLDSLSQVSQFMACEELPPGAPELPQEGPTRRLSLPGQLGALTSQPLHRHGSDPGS
As for `COc1ccc(C2C3=C(CC(C)(C)CC3=O)Oc3ncn(Cc4ccccc4)c(=N)c32)cc1` (stereo not shown), the “hERG current change (%, negative = inhibition) at 10uM” value is -55.5%.
The result for `CN1CC(c2ccccc2)Oc2ccccc2C1=S` (stereo not shown) reads -0.674%; that for `S=c1nc(-c2ccccc2)[nH]c2ccccc12`, 21.6%.
As to `CCCCOc1ccc(/C=C/C(=O)N(CC)CC(=O)Nc2ccc3c(c2)OCCO3)cc1OC`, the “hERG current change (%, negative = inhibition) at 10uM” value is given as -28.9%.
`COc1ccc(-n2nc(C(=O)NCC(=O)NC(C)C)c3ccccc3c2=O)cc1Cl`: the “hERG current change (%, negative = inhibition) at 10uM” value is given as 4.05%.
The result for `CCCCn1nc(C(=O)NCC2COc3ccccc3O2)c2ccccc2c1=O` (stereo not shown) reads -49.1%; that for `CC(C)(C)c1cc(C(=O)NNS(=O)(=O)c2ccccc2)n[nH]1`, 9.31%.
The result for `O=C(Nc1ccccc1)C1CCN(C(=O)c2ccc([N+](=O)[O-])cc2)CC1` reads -71.4%; that for `COc1ccc(C(=O)NC=C2C(=O)OC(C)(C)OC2=O)cc1`, 4.18%; that for `COC(=O)c1ccc(S(=O)(=O)NC(C)(C)C)n1C`, 15.7%.
The result for `CCOc1ccc(NC(=O)Nc2nc3ccc(S(C)(=O)=O)cc3s2)cc1` reads 16.6%; that for `Cc1cccn2c(=O)c(C=O)c(N3CCCCCC3)nc12`, -11.5%; that for `COc1ccc(-c2oc3cccnc3c2/C=C/c2ccc(OC)c(OC)c2)cc1`, 23.5%.
For the molecule `Cc1nc([N+](=O)[O-])cn1CC(=O)Nc1ccc(F)c(Cl)c1`, the “hERG current change (%, negative = inhibition) at 10uM” value is on record as 25.4%.
The result for `S=C(c1ccc[nH]1)N1CCOCC1` reads 25.7%; that for `COc1ccc(-n2c(Cc3cc(=O)[nH]c(=O)[nH]3)nnc2SCC(=O)N2CCC(C)CC2)cc1`, 5.03%.
Then `CC1CCCCC1NC(=O)CCn1c(=O)sc2ccccc21` (stereo not shown), with 7.23%; and `CCOC(=O)c1cc(-c2ccccc2)n(CCC(=O)NC(C)CC)c1C` (stereo not shown), with -12.5%.
Then `CC(C)(C)c1ccc(NC(=O)Cn2cnc3cc([N+](=O)[O-])ccc3c2=O)cc1`, with 11.7%; and `Cc1cc2c(cc1S(=O)(=O)N1CCN(c3ccc(Cl)cc3)CC1)OCCN2C`, with 6.05%; and `Cc1nc2c(=O)n(-c3ccc(F)cc3F)nc(C)c2s1`, with 16.2%.
Take `Cn1c(N)c(C(=O)COC(=O)/C=C/c2ccc(S(=O)(=O)N3CCOCC3)cc2)c(=O)n(C)c1=O`: the “hERG current change (%, negative = inhibition) at 10uM” value was -1.72%.
With `CC(C)(C)OC(=O)NCCCCCc1nnc(SCc2cccc(F)c2)o1`, the “hERG current change (%, negative = inhibition) at 10uM” value was -38.1%.
Then `CC(=O)Nc1ccc(NC(=O)Nc2cccc(Cl)c2)cc1`, with 15.9%.
Regarding `CCNC(=S)N/N=C/c1sc(N2CCCCC2)nc1-c1cccs1`, the “hERG current change (%, negative = inhibition) at 10uM” value is reported as 9.09%.
Then `O=C1C(O)CC2c3ccccc3CC3(CCCC3)N12` (stereo not shown), with 6.83%; and `CCOC(=O)c1c(N)sc2c1CCN(CCc1ccccc1)C2`, with -28.6%; and `CCCNC(=O)C(Cc1cccc(C#N)c1)NC(=O)c1cccc([N+](=O)[O-])c1` (stereo not shown), with -10.2%.
On to `NC(=O)c1cc[n+](Cc2ccccc2Cl)cc1.[Br-]`, for which the “hERG current change (%, negative = inhibition) at 10uM” value worked out at 12.5%.
For `Cn1c(/C=C/c2ccc(Cl)cc2)c([N+](=O)[O-])c(=O)n(C)c1=O`, the “hERG current change (%, negative = inhibition) at 10uM” value is -44.8%.
Then `COCCN(C(=S)Nc1cccc(OC)c1)C(C)c1cccs1` (stereo not shown), with -8.4%; and `Cc1cc(N2CCCC2=O)c(N)cc1N`, with 17.4%; and `CCOc1ccc(NS(=O)(=O)c2ccc(C(=O)NCC3(N4CCCCC4)CCCCC3)cc2)cc1`, with -11%.
The result for `COCCCNC(=O)/C(C#N)=C/c1ccc(F)cc1` reads 6.92%; that for `CCOc1ccc(S(=O)(=O)N2CCOCC2)cc1NC(=O)CN1C(=O)NC2(CCCCC2)C1=O`, -17.9%; that for `COc1cc(NC(=O)N2CCNC2=O)cc(C(=O)Nc2cccc(C(F)(F)F)c2)c1`, -7.85%.
Turning to `O=C(O)c1cc(-c2cccs2)nc2cc3c(cc12)OCCO3`, the “hERG current change (%, negative = inhibition) at 10uM” value is recorded as -9.08%.
Then `CCOC(=O)c1cccc(C2=CC(=O)CC(C)(C)C2)c1`, with -33.9%; and `O=S(=O)([N-]c1nc2ccccc2nc1-n1cc[n+](Cc2ccccc2)c1)c1ccccc1`, with -1.68%; and `COc1cc(C(=O)NC(c2ccccc2)c2ccccc2)cc(Cl)c1OC`, with 3.78%.
The result for `COc1cccc(NC(=O)N2CCCC(C(=O)NC3CCCCC3C)C2)c1` (stereo not shown) reads -2.78%; that for `O=C(Nc1ccc(CN2CCOCC2)cc1)c1ccc2ccccc2c1`, -47.1%.
Then `Cc1ccc(S(=O)(=O)N2CCC(C(=O)OC(C)C(=O)NC3CCCCC3C)CC2)cc1C` (stereo not shown), with -25.4%; and `Cc1ccc(N2C(=O)c3ccc(N)cc3C2=O)cc1C`, with 0.256%.
Take `COC(=O)C(C(C)C)N1CCc2c(C)nc3c(C#N)cnn3c21` (stereo not shown): the “hERG current change (%, negative = inhibition) at 10uM” value turned out to be 13.9%.
Then `CCOC(=O)N1CCN(C(=S)NC(=O)C23CC4CC(CC(C4)C2)C3)CC1`, with 4.1%; and `Cc1cnc(C(=O)NCCc2ccc(C(F)(F)F)cc2)cn1`, with 8.37%.
Then `COc1ccc(-c2cc(C)no2)cc1S(=O)(=O)N(C)c1ccc(C)c(C)c1`, with -1.83%; and `C=CCn1c(SCCN2CCCCC2)nc2c1c(=O)[nH]c(=O)n2C`, with -47.3%.
Then `CN(C)c1ccc(CN2CCC(C(N)=O)CC2)cc1.O=C(O)C(=O)O`, with 39.8%; and `O=S1(=O)CCC(SCc2nc3sccn3c2Br)C1` (stereo not shown), with -3.7%; and `Cc1ccc(-c2nnc(SCC(=O)N3CCCC3)o2)cc1`, with -5.18%.
`CCS(=O)(=O)n1nc(C(=O)N2CCOCC2)nc1N`: the “hERG current change (%, negative = inhibition) at 10uM” value was 6.35%.
Regarding `Cc1cc(C)cc(CC(Cc2nc3ccccc3[nH]2)c2nc3ccccc3[nH]2)c1` (stereo not shown), the “hERG current change (%, negative = inhibition) at 10uM” value was determined as 7.23%.
For the molecule `O=c1/c(=C/c2cccc3ccccc23)sc2ncnn12`, the “hERG current change (%, negative = inhibition) at 10uM” value is -8.89%.
Then `S=C(Nc1cccc(Cl)c1)Nc1ccccc1Oc1ccccc1`, with 15.7%; and `CCC(C)(C(=O)Nc1ccc2c(c1)OCCO2)N(C(C)=O)c1ccc(C(N)=O)cc1` (stereo not shown), with -4.82%; and `O=C1NC(Nc2ccccn2)(C(F)(F)F)C(=O)N1c1ccc(F)cc1` (stereo not shown), with -0.785%.
Regarding `Cc1c(NC(=O)C(C)Oc2cccc(Cl)c2)c(=O)n(-c2ccccc2)n1C` (stereo not shown), the “hERG current change (%, negative = inhibition) at 10uM” value was -2.21%.
`CC(=O)N=c1sccn1CC(=O)c1ccc([N+](=O)[O-])cc1`: the “hERG current change (%, negative = inhibition) at 10uM” value was -13.9%.
The result for `COc1cc(/C=N/NC(=O)c2ccc3nc[nH]c3c2)cc(OC)c1OC` reads 4.81%.
With `CCOC(=O)c1cnc2c(-c3ccccc3)c(-c3ccccc3)nn2c1C`, the “hERG current change (%, negative = inhibition) at 10uM” value worked out at 10.2%.
Then `CC(=O)Nc1cccc(NC(=O)c2cc(C)on2)c1`, with 7.35%; and `COc1cccc(C(=O)NNC(=O)Cc2csc(N)n2)c1`, with -15.7%.
Then `CC(C)CCN(C(=O)c1ccc(N2CCCC2=O)cc1)c1c(N)n(Cc2ccccc2)c(=O)[nH]c1=O`, with 12.2%; and `CSc1ccccc1NC(=O)c1cnc2scc(C)n2c1=O`, with 7.7%; and `CC1Cc2ccccc2N1CC(=O)Nc1ccc2c(c1)OCO2` (stereo not shown), with 8.8%.
Then `COc1ccc(C(=O)N[C@H](C(=O)NCc2ccccc2)C(C)C)cc1`, with 1.34%.
In the case of `COc1ccc(/C=N/NC(=O)c2c(C)nnn2-c2nonc2N)cc1OC`, the “hERG current change (%, negative = inhibition) at 10uM” value came out at 21.9%.
Take `O=C1CC(c2ccccc2)N1c1ccccc1` (stereo not shown): the “hERG current change (%, negative = inhibition) at 10uM” value is listed as -3.61%.
Consider `CC(C)(C)c1nnc(NC(=O)C2CCN(C(=O)c3ccco3)CC2)s1`, for which the “hERG current change (%, negative = inhibition) at 10uM” value is listed as 9.75%.
The result for `CCOc1cccc(NC(=O)CC#N)c1` reads 8.73%; that for `O=C1C=C(c2cccc(Cl)c2)C[C@@H](c2ccc(Cl)cc2)C1`, 24.4%.
Then `Cc1c(C)c(C)c(CO/N=C/c2cccs2)c(C)c1C`, with -6.05%; and `COc1ccc(C)cc1NC(=O)CCNS(=O)(=O)c1ccc2c(c1)CCC(=O)N2`, with -5.18%; and `COc1ccc2ncc(S(=O)(=O)c3ccccc3)c(N3CCC4(CC3)OCCO4)c2c1`, with -63.3%.
Then `CCC1=NN(C(=O)CCc2ccc3c(c2)OCO3)C(O)(C(F)(F)F)C1` (stereo not shown), with 0.796%; and `Cc1cccc(-[n+]2c(C)cc(C)c3c(=O)[nH]c(=O)[nH]c32)c1.[I-]`, with 4.06%; and `O=c1c2ccccc2nc(SCc2ccc([N+](=O)[O-])cc2)n1-c1ccc(Cl)cc1`, with 2.79%.
For `CC(=O)c1c(C)n(CC(=O)NCc2ccco2)c2ccccc12`, the “hERG current change (%, negative = inhibition) at 10uM” value is -9.29%.
In the case of `Cc1nc2cc(NC(=O)Nc3ccccc3Cl)ccc2n1C`, the “hERG current change (%, negative = inhibition) at 10uM” value is listed as -10%.
Turning to `CCc1nnc(NC(=O)C2CC(=O)N(c3ccc(C)cc3)C2)s1` (stereo not shown), the “hERG current change (%, negative = inhibition) at 10uM” value is reported as -15.5%.
As for `O=C(O)c1csc(-n2nc(-c3ccccc3)cc2C(F)(F)F)n1`, the “hERG current change (%, negative = inhibition) at 10uM” value is given as 15.5%.
`Cc1ccc2nc(SCC(=O)Nc3ccc(F)c([N+](=O)[O-])c3)[nH]c2c1`: the “hERG current change (%, negative = inhibition) at 10uM” value is -2.06%.
For `COc1cc(CCC(=O)OCc2nnc(-c3ccccc3)o2)cc(OC)c1OC`, the “hERG current change (%, negative = inhibition) at 10uM” value is recorded as -25.2%.
On to `COc1ccc(NC(=O)C2CCCN(C(=O)Nc3ccc(F)cc3)C2)cc1OC` (stereo not shown), for which the “hERG current change (%, negative = inhibition) at 10uM” value turned out to be 0.0756%.
Then `Cc1ccc2nccc(C(=O)N3CCCC(Nc4ccc(F)cc4)C3)c2c1` (stereo not shown), with -18.4%.
Then `COc1cc2c(cc1OC)CN(Cc1cc(=O)oc3cc(C)c(Cl)cc13)CC2`, with -14.3%.
